The results in this text go back to PMC5892938.

This is one part of the list. At the low end of the ranking, values are background and their order means little.

The experiment addresses GST-SBP-SLBP (stem-loop binding protein) (UniProt Q14493). The experiment in a line: targeted RNA Bind-n-Seq.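 Also: DESeq read counts versus GST-SBP nonspecific binding control pulldown.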 Conditions: RBNS binding buffer: 25 mM Tris pH 7.5, 150 mM KCl, 3 mM MgCl2, 0.1% Tween, 0.5 mg/mL BSA, 1 mM DTT; 27 nM protein, 750 pM RNA pool; temperature not stated; high values mean tight binding.
Regarding “GGUCACGUCUCAAUCAACUCAUGUCCAGGAGUUUUCUCCUGUAAUUUCAACAGCUCGCAGUCAAG”, the binding signal (log2 fold change) is -0.275.

As to “GGUCACGUCUCAAUCAACUCUAUCUCAGGAGUUUUCUCCUGCUAUUUCAACAGCUCGCAGUCAAG”, the binding signal (log2 fold change) was found to be 0.038.

On to “GGUCACGUCUCAAUCAACUCAAGUCCCAGGGAAACCCCUGGCAAUUUCAACAGCUCGCAGUCAAG”, for which the binding signal (log2 fold change) is -0.327.

In the case of “GGUCACGUCUCAAUCAACUCAUCCUCAGGAGUUUGCUCCUGCUUUUUCAACAGCUCGCAGUCAAG”, the binding signal (log2 fold change) is -0.0583.

Take “GGUCACGUCUCAAUCAACUCUUUUUCCAGGGAAAGCCCUGGCAGUCUCAACAGCUCGCAGUCAAG”: the binding signal (log2 fold change) turned out to be 0.0588.

As for “GGUCACGUCUCAAUCAACUCCUCAGAGGGGGGGAAAACCCCUUUGCCCUCAAUAUCAACAGCUCGCAGUCAAG”, the binding signal (log2 fold change) was -0.131.

For “GGUCACGUCUCAAUCAACUCAUCGCCCAGGGAAAUCCCUGGUUUUCUCAACAGCUCGCAGUCAAG”, the binding signal (log2 fold change) is -0.0557.

Consider “GGUCACGUCUCAAUCAACUCAUCCCCAGGAGUUUUCUCCUGUAAUUUCAACAGCUCGCAGUCAAG”, for which the binding signal (log2 fold change) was -0.142.

On to “GGUCACGUCUCAAUCAACUCAUUUUCCAGGGAAACCCCUGGUAUUCUCAACAGCUCGCAGUCAAG”, for which the binding signal (log2 fold change) is -0.0144.

In the case of “GGUCACGUCUCAAUCAACUCUUCCCCCAGGGAAACCCCUGGCUAUUUCAACAGCUCGCAGUCAAG”, the binding signal (log2 fold change) came to 0.251.

As for “GGUCACGUCUCAAUCAACUCUUCUCCAGGAGUUUACUCCUGUAAUUUCAACAGCUCGCAGUCAAG”, the binding signal (log2 fold change) stood at 0.104.

In the case of “GGUCACGUCUCAAUCAACUCUUCUUCCAGGGAAACCCCUGGUAAUGUCAACAGCUCGCAGUCAAG”, the binding signal (log2 fold change) was determined as 0.176.

For the sequence “GGUCACGUCUCAAUCAACUCUACUCCAGGAGUUUACUCCUGCUAUCUCAACAGCUCGCAGUCAAG”, the binding signal (log2 fold change) stood at 0.154.

With “GGUCACGUCUCAAUCAACUCAUUUUCAGGAGUUUCCUCCUGUAAUCUCAACAGCUCGCAGUCAAG”, the binding signal (log2 fold change) worked out at 0.0778.

Take “GGUCACGUCUCAAUCAACUCAAUCUCAGGAGUUUUCUCCUGCAUGUUCAACAGCUCGCAGUCAAG”: the binding signal (log2 fold change) stood at 0.127.

In the case of “GGUCACGUCUCAAUCAACUCUAUCCCCAGGGAAAACCCUGGUAUUUUCAACAGCUCGCAGUCAAG”, the binding signal (log2 fold change) is 0.0351.

On to “GGUCACGUCUCAAUCAACUCAUCGCCCAGGGAAACCCCUGGUUUUUUCAACAGCUCGCAGUCAAG”, for which the binding signal (log2 fold change) is -0.133.

In the case of “GGUCACGUCUCAAUCAACUCAUCUCCCAGGGAAAGCCCUGGUUAUCUCAACAGCUCGCAGUCAAG”, the binding signal (log2 fold change) is -0.0135.

Take “GGUCACGUCUCAAUCAACUCUAUCCCCAGGGAAAACCCUGGUUAAUUCAACAGCUCGCAGUCAAG”: the binding signal (log2 fold change) came to 0.161.

“GGUCACGUCUCAAUCAACUCUAUCUCCAGGGAAAUCCCUGGUUUUCUCAACAGCUCGCAGUCAAG”: the binding signal (log2 fold change) is -0.0211.

As to “GGUCACGUCUCAAUCAACUCAUCUUCCAGGGAAACCCCUGGUAUAUUCAACAGCUCGCAGUCAAG”, the binding signal (log2 fold change) stood at 0.0311.

Consider “GGUCACGUCUCAAUCAACUCUAUAGAGGGGGGGAAAACCCCUUUGCCCUCAACUUCAACAGCUCGCAGUCAAG”, for which the binding signal (log2 fold change) is -0.405.

As for “GGUCACGUCUCAAUCAACUCUUUUUCAGGAGUUUUCUCCUGUUUUUUCAACAGCUCGCAGUCAAG”, the binding signal (log2 fold change) is -0.0431.

Take “GGUCACGUCUCAAUCAACUCAACUUCCAGGGAAAUCCCUGGUAAACUCAACAGCUCGCAGUCAAG”: the binding signal (log2 fold change) is -0.251.

“GGUCACGUCUCAAUCAACUCAAUAGAGGGGGGGAAAACCCCUUUACCCUCAAUCUCAACAGCUCGCAGUCAAG”: the binding signal (log2 fold change) is -0.088.

Take “GGUCACGUCUCAAUCAACUCUACUUCAGGAGUUUUCUCCUGCUAAUUCAACAGCUCGCAGUCAAG”: the binding signal (log2 fold change) is -0.17.

Turning to “GGUCACGUCUCAAUCAACUCAUUUCCAGGAGUUUCCUCCUGCUAUCUCAACAGCUCGCAGUCAAG”, the binding signal (log2 fold change) turned out to be 0.149.

For “GGUCACGUCUCAAUCAACUCAACGCCAGGAGUUUUCUCCUGCUAAUUCAACAGCUCGCAGUCAAG”, the binding signal (log2 fold change) is -0.0133.

Consider “GGUCACGUCUCAAUCAACUCUAUCUCCAGGGAAAACCCUGGCUUUUUCAACAGCUCGCAGUCAAG”, for which the binding signal (log2 fold change) is -0.176.

As to “GGUCACGUCUCAAUCAACUCAUUUCCCAGGGAAAACCCUGGCAUUCUCAACAGCUCGCAGUCAAG”, the binding signal (log2 fold change) stood at 0.167.

In the case of “GGUCACGUCUCAAUCAACUCUUCUCCCAGGGAAAACCCUGGCAAUCUCAACAGCUCGCAGUCAAG”, the binding signal (log2 fold change) was -0.0664.

Take “GGUCACGUCUCAAUCAACUCUUUAGAGGGGGGGAAAACCCCUUUGCCCUCGUCAUCAACAGCUCGCAGUCAAG”: the binding signal (log2 fold change) is -0.128.

As to “GGUCACGUCUCAAUCAACUCAUCUCCAGGAGUUUUCUCCUGCAAACUCAACAGCUCGCAGUCAAG”, the binding signal (log2 fold change) is 0.16.

As for “GGUCACGUCUCAAUCAACUCCCUAGAGGGGGGGAAAACCCCUUUGCCCUCGUCAUCAACAGCUCGCAGUCAAG”, the binding signal (log2 fold change) was -0.457.

In the case of “GGUCACGUCUCAAUCAACUCUACUUCCAGGGAAACCCCUGGCUUAUUCAACAGCUCGCAGUCAAG”, the binding signal (log2 fold change) was 0.218.

Take “GGUCACGUCUCAAUCAACUCAUUUUCCAGGGAAAUCCCUGGUAUACUCAACAGCUCGCAGUCAAG”: the binding signal (log2 fold change) is 0.0805.

As to “GGUCACGUCUCAAUCAACUCAUCCCCCAGGGAAAUCCCUGGCAAUUUCAACAGCUCGCAGUCAAG”, the binding signal (log2 fold change) came to 0.00128.
